# Several values for one entry are separate records, joined by “and”; a condition that tells them apart may be missing. Equal entries are not always repeated. The inconclusive results got no clear call from the source; some entries with a clear call stand among them for comparison. For part of these data: A potency beside an inconclusive call is a rough fit, not a confirmed value. For part of these data: “Side channel” marks fits to a control or component signal instead of the main read-out. Activity calls are given as the source filed them. Unless noted, calls come from the whole dose curve; as a rule, active = well fitted curve in the direction sought with a large enough effect; inconclusive = small, poorly fitted or top-dose-only effect, or another doubt; inactive = no such curve, though single readings can be large; an effect the other way counts as inactive or inconclusive.
# Legend:
# [1] = NS1 protein of Zika virus - qHTS assay to identify small molecule inhibitors in human HEK 293 cells (AID 1347053); note: nearly all actives have a fitted effect of over 55% in size; note: potency is the fitted concentration of half-maximal effect
# In short: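 HEK 293 cells pretreated with compound for 1 h, then infected with ZIKV MR766 (MOI 0.5) for 24 h at 37 C. NS1 detected by TR-FRET with two anti-NS1 antibodies; normalized to uninfected (0%) and infected (100%) wells.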
# [2] = qHTS of pediatric cancer cell lines to identify multiple opportunities for drug repurposing: Primary screen for SJ-GBM2 cells (AID 1347091); note: potency is the fitted concentration of half-maximal effect;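 for activity change, negative = cytotoxic: plate controls were DMSO neutral control for no effect and bortezomib for full effect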
# In short: (§1)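 Viability measured as metabolically active cells via CellTiter-Glo luminescence following 48 hours of compound exposure, 11-point dilutions in confirmatory testing. 500-1,000 cells/well plated 5 hours before dosing; controls were DMSO and 2.3 µM bortezomib.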
# [3] = qHTS of pediatric cancer cell lines to identify multiple opportunities for drug repurposing: Primary screen for BT-37 cells (AID 1347094); note: potency is the fitted concentration of half-maximal effect;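 for activity change, negative = cytotoxic: plate controls were DMSO for no effect and bortezomib for full effect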
# In short: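 Primary screen of approved and investigational compounds on cells in growth media at 37 degrees C, 5% CO2. MIPE set at 11-point and NPC set at 8-point dilutions; viability scored by ATP-based luminescence at 48 hours.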
# [4] = qHTS of pediatric cancer cell lines to identify multiple opportunities for drug repurposing: Primary screen for A673 cells (AID 1347092); settings: A673 Ewing sarcoma viability, CellTiter-Glo ATP luminescence, 48 h; activity change, negative = cytotoxic: at 46 µM (top of the series); note: nearly all actives have a fitted effect of over 45% in size; note: potency is the fitted concentration of half-maximal effect; for activity change, negative = cytotoxic: % is set by controls: 0 for no effect and ±100 for the full control effect
# In short: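 Luminescence from CellTiter-Glo, taken after 15 min at room temperature, served as the proxy for metabolically active cells following 48 h treatment. Both potency and efficacy were taken from curves fitted to the titration data.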
# [5] = qHTS of pediatric cancer cell lines to identify multiple opportunities for drug repurposing: Primary screen for SK-N-MC cells (AID 1347093); settings: SK-N-MC viability, CellTiter-Glo luminescence, 48 h; activity change, negative = cytotoxic: at 46 µM (top of the series); note: potency is the fitted concentration of half-maximal effect
# In short: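 Metabolically active cells were quantified by ATP-dependent luminescence (CellTiter-Glo, 15 min at room temperature) following 48 h treatment. Cells had been plated at 500-1,000 per well and settled for 5 h beforehand.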
# [6] = target: T1, Tyrosine-protein phosphatase non-receptor type substrate 1 (Homo sapiens) + Leukocyte surface antigen CD47 (Homo sapiens) (UniProt P78324+Q08722); assay: CD47-SIRPalpha protein protein interaction - HTRF assay qHTS validation (AID 1347058; active = well fitted curve in the direction sought with a large enough effect in the signal ratio, not every such curve was filed as active; inconclusive = small, poorly fitted or top-dose-only effect, or effect the other way, or a change in a side signal; inactive = no such curve, though single readings can be large or run the other way; the % refers to the signal ratio; note: potency is the fitted concentration of half-maximal effect)
# T1 sequence (P78324 whole entry, looked up, the tested form may be a part): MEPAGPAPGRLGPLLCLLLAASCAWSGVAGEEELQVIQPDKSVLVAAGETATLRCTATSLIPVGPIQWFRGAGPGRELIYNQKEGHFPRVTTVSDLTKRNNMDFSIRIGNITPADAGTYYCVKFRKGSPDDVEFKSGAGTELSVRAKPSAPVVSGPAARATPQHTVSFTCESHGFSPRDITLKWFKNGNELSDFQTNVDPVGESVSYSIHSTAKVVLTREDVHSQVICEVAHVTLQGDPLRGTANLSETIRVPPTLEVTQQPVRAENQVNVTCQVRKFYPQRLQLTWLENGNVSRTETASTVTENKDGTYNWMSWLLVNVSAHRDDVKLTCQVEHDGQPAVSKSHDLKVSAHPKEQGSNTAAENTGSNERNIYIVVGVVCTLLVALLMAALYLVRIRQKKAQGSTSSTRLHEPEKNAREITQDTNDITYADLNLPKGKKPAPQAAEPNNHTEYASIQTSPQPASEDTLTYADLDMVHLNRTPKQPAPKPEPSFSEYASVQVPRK
# T1 sequence (Q08722 whole entry, looked up, the tested form may be a part): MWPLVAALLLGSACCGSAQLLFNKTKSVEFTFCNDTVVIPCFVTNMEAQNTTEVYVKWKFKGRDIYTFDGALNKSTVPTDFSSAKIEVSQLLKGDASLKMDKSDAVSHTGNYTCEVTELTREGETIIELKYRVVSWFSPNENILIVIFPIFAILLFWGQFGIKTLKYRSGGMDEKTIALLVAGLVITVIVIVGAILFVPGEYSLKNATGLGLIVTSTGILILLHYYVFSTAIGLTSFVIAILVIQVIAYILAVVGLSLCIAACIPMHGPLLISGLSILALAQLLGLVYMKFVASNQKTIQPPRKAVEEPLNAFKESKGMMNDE
# In short: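 TR-FRET read (Ch1/Ch2 ratio) of soluble extracellular CD47 and Avi-biotinylated SIRPalpha domains in PBS pH 7.4 with 0.05% IGEPAL; 7-point compound titration. Sequential 30 min room-temperature steps; non-biotinylated SIRPalpha as control inhibitor.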
# [7] = qHTS of pediatric cancer cell lines to identify multiple opportunities for drug repurposing: Primary screen for TC32 cells (AID 1347089); note: nearly all actives have a fitted effect of over 60% in size; note: potency is the fitted concentration of half-maximal effect; for activity change, negative = cytotoxic: % is set by controls: 0 for no effect and ±100 for the full control effect
# In short: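 qHTS, TC32, 48 h drug treatment, CellTiter-Glo luminescence as a proxy for metabolically active cells; primary top concentration 46 µM (MIPE 11-pt, NPC 8-pt); confirmatory 11-pt.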
# [8] = qHTS of pediatric cancer cell lines to identify multiple opportunities for drug repurposing: Primary screen for DAOY cells (AID 1347090); settings: DAOY medulloblastoma viability, CellTiter-Glo luminescence, 48 h; activity change, negative = cytotoxic: at 46 µM (top of the series) unless noted; note: nearly all actives have a fitted effect of over 55% in size; note: potency is the fitted concentration of half-maximal effect;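 for activity change, negative = cytotoxic: plate controls were DMSO for no effect and bortezomib for full effect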
# In short: as §1
# [9] = target: T1, Tyrosine-protein phosphatase non-receptor type substrate 1 (Homo sapiens) + Leukocyte surface antigen CD47 (Homo sapiens); assay: CD47-SIRPalpha protein protein interaction - Alpha assay qHTS validation (AID 1347059);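 note: bead proximity luminescence from CD47 binding SIRPalpha after compound preincubation with SIRPalpha; % is set by controls: 0 for no effect and ±100 for the full control effect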
# In short: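 Biotinylated Avi-tagged SIRPalpha (25 nM) preincubated 30 min with compound, then His-tagged CD47 (12.5 nM) added 30 min; AlphaScreen with Ni-NTA acceptor and streptavidin donor beads. PBS pH 7.4, 0.05% IGEPAL, room temperature; 7-point titrations.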
# Tags give direction and shape of the fitted curve.
smiles,measurement,setting,value
COc1nccc(-c2c(-c3ccc(F)cc3)ncn2C2CCNCC2)n1,Potency,[1],inactive
same,Potency,[2],"inconclusive: 1.18 µM [cytotoxic, full curve, poor fit]"
same,Potency,[3],"inconclusive: 4.32 µM [cytotoxic, partial curve, poor fit]"
CCCC1OC2C[C@@H]3[C@H]4CCC5=CC(=O)C=C[C@]5(C)[C@H]4C(O)C[C@]3(C)[C@]2(C(=O)CO)O1 (some centres not stated),Potency,[1],inactive
same,Potency,[2],"inconclusive: 1.48 µM [cytotoxic, partial curve]"
same,Potency,[3],"inconclusive: 19.3 µM [cytotoxic, partial curve]"
COc1ccc2cc(-c3nc(-c4ccc(S(C)=O)cc4)[nH]c3-c3ccncc3)ccc2c1 (configuration not stated),Potency,[1],"inconclusive: 33.2 µM [inhibitor, single point]"
same,Potency,[4],"inconclusive: 37.2 µM [cytotoxic, single point]"
same,Potency,[5],"inconclusive: 37.2 µM [cytotoxic, single point]"
same,Potency,[3],"inconclusive: 43.2 µM [cytotoxic, single point]"
Oc1ccc(-c2nc(-c3ccc(F)cc3)c(-c3ccncc3)[nH]2)cc1,Potency,[6],"inconclusive: 14.7 µM [side channel, falling, partial curve]"
same,Potency,[7],"inconclusive: 37 µM [cytotoxic, single point]"
same,Potency,[2],"inconclusive: 23.5 µM [cytotoxic, single point]"
CNC(=O)c1cc(COc2nnc(Nc3ccc(Cl)cc3)c3ccoc23)ccn1,Potency,[1],"inconclusive: 37.2 µM [inhibitor, partial curve, poor fit]"
same,Potency,[5],active: 23.5 µM
same,Potency,[3],"inconclusive: 24.3 µM [cytotoxic, partial curve]"
CC[C@H]1OC(=O)[C@H](C)[C@@H](O[C@H]2C[C@@](C)(OC)[C@@H](O)[C@H](C)O2)[C@H](C)[C@@H](O[C@@H]2O[C@H](C)C[C@H](N(C)C)[C@@H]2O)[C@](C)(O)C[C@@H](C)CN(C)[C@H](C)[C@@H](O)[C@]1(C)O,Potency,[1],inactive
same,Potency,[3],"inconclusive: 27.3 µM [cytotoxic, partial curve, poor fit]"
CCCCCCCCCC(=O)N[C@@H](Cc1c[nH]c2ccccc12)C(=O)N[C@H](CC(N)=O)C(=O)N[C@@H](CC(=O)O)C(=O)N[C@@H]1C(=O)NCC(=O)N[C@@H](CCCN)C(=O)N[C@@H](CC(=O)O)C(=O)N[C@H](C)C(=O)N[C@@H](CC(=O)O)C(=O)NCC(=O)N[C@H](CO)C(=O)N[C@@H]([C@@H](C)CC(=O)O)C(=O)N[C@@H](CC(=O)c2ccccc2N)C(=O)O[C@@H]1C,Potency,[1],inactive
same,Potency,[3],inactive
CO[C@H]1C=CO[C@@]2(C)Oc3c(C)c(O)c4c(O)c(c(C=NN5CCN(C)CC5)c(O)c4c3C2=O)NC(=O)C(C)=CC=C[C@H](C)[C@H](O)[C@@H](C)[C@@H](O)[C@@H](C)[C@H](OC(C)=O)[C@H]1C,Potency,[1],"inconclusive: 7.53 µM [inhibitor, single point]"
same,"activity change, negative = cytotoxic",[4],inactive: 0.264% [at 9.22 µM]
O=C(c1cncc(Br)c1)N1CCC(N2CCCC2)CC1,Potency,[1],"inconclusive: 0.187 µM [inhibitor, single point]"
same,Potency,[4],inactive
Cc1cc(C(=O)N2CCN(c3cccc(Cl)c3)CC2)n(-c2ccccc2)n1,Potency,[1],"inconclusive: 0.372 µM [inhibitor, full curve]"
same,Potency,[4],active: 0.59 µM
CC[C@H](NC(=O)[C@H](C)NC)C(=O)N1C[C@@H](O)C[C@H]1Cc1c(-c2[nH]c3cc(F)ccc3c2C[C@H]2C[C@H](O)CN2C(=O)[C@H](CC)NC(=O)[C@H](C)NC)[nH]c2cc(F)ccc12,Potency,[1],"inconclusive: 37.2 µM [inhibitor, single point]"
same,Potency,[2],active: 0.0469 µM
same,Potency,[3],active: 0.217 µM
Cn1c(=O)c2[nH]cnc2n(C)c1=O,Potency,[6],"inconclusive: 26.1 µM [side channel, falling, single point]"
same,Potency,[4],inactive
CC[C@H]1OC(=O)[C@H](C)C(=O)[C@H](C)[C@@H](O[C@H]2O[C@H](C)C[C@H](N(C)C)[C@@H]2O)[C@](C)(OC)C[C@@H](C)C(=O)[C@H](C)[C@H]2N(CCCCn3cnc(-c4cccnc4)c3)C(=O)O[C@]12C,Potency,[1],"inconclusive: 37.2 µM [inhibitor, single point]"
same,Potency,[4],"inconclusive: 29.6 µM [cytotoxic, partial curve]"
same,Potency,[3],"inconclusive: 19.3 µM [cytotoxic, partial curve]"
CC(C)NCC(O)c1ccc(NS(C)(=O)=O)cc1 (configuration not stated),Potency,[6],inactive
same,Potency,[8],"inconclusive: 11.8 µM [cytotoxic, partial curve, poor fit]"
same,Potency,[4],"inconclusive: 9.35 µM [cytotoxic, full curve]"
O=C(C1CC1)N1CC[C@@H](Cn2c(-c3ccc(-c4ccc5occc5c4)cc3)nc3cnccc32)C1,Potency,[1],"inconclusive: 29.6 µM [inhibitor, single point]"
same,Potency,[5],active: 18.7 µM
same,Potency,[3],"inconclusive: 15.3 µM [cytotoxic, partial curve]"
CN1C(C(=O)Nc2ccccn2)=C(O)c2ccccc2S1(=O)=O,Potency,[6],"inconclusive: 20.7 µM [side channel, falling, single point]"
same,Potency,[7],"inconclusive: 33 µM [cytotoxic, single point]"
same,Potency,[2],inactive
same,Potency,[4],"inconclusive: 2.96 µM [cytotoxic, full curve]"
COC1=C(OC)C(=O)C(CCCCCCCCCCO)=C(C)C1=O,Potency,[7],"inconclusive: 29.7 µM [cytotoxic, partial curve, poor fit]"
same,Potency,[8],"inconclusive: 26.6 µM [cytotoxic, single point] and inconclusive: 29.6 µM [cytotoxic, single point]"
COc1cc([C@@H]2c3cc4c(cc3[C@H](O)[C@H]3COC(=O)[C@H]23)OCO4)cc(OC)c1OC,Potency,[7],active: 167 nM and active: 5.2 nM
same,"activity change, negative = cytotoxic",[8],inconclusive: -77.8%
same,Potency,[2],active: 23.7 nM and active: 1 nM
same,Potency,[5],active: 53.1 nM and active: 1 nM
same,Potency,[3],active: 69.2 nM and active: 1 nM
CC(C)(C#N)c1cc(Cn2cncn2)cc(C(C)(C)C#N)c1,Potency,[7],inactive
O=C1c2c(O)cc(O)cc2OC(c2ccc(O)c(O)c2)C1O (configuration not stated),Potency,[9],inactive
same,Potency,[2],inactive
CC[C@H]1OC(=O)[C@H](C)[C@@H](O[C@H]2C[C@@](C)(OC)[C@@H](O)[C@H](C)O2)[C@H](C)[C@@H](O[C@@H]2O[C@H](C)C[C@H](N(C)C)[C@H]2O)[C@](C)(O)C[C@H](C)C(=NOCOCCOC)[C@H](C)[C@@H](O)[C@]1(C)O,Potency,[7],"inconclusive: 1.86 µM [cytotoxic, full curve, poor fit]"
same,Potency,[8],inactive
N#CC(=Cc1ccc(O)c(O)c1)C(=O)NCc1ccccc1,Potency,[7],"inconclusive: 29.4 µM [cytotoxic, single point]"
same,Potency,[8],"inconclusive: 29.6 µM [cytotoxic, single point]"
same,Potency,[2],"inconclusive: 29.6 µM [cytotoxic, single point]"
same,Potency,[4],"inconclusive: 14.8 µM [cytotoxic, partial curve]"
same,Potency,[5],active: 14.8 µM
same,Potency,[3],"inconclusive: 19.3 µM [cytotoxic, partial curve]"
COC(=O)C[C@](O)(CCCC(C)(C)O)C(=O)O[C@@H]1C(OC)=C[C@]23CCCN2CCc2cc4c(cc2[C@H]13)OCO4,Potency,[7],inactive
same,Potency,[8],"inconclusive: 29.6 µM [cytotoxic, single point]"
CC(=O)SCC(Cc1ccccc1)C(=O)NCC(=O)OCc1ccccc1 (configuration not stated),Potency,[7],"inconclusive: 33 µM [cytotoxic, single point]"
same,Potency,[8],active: 2.35 µM
OC[C@H]1O[C@@H](Oc2cc(O)cc(C=Cc3ccc(O)cc3)c2)[C@H](O)[C@@H](O)[C@H]1O,Potency,[7],inactive
same,Potency,[8],"inconclusive: 37.2 µM [cytotoxic, single point]"
same,Potency,[4],active: 9.35 µM
same,Potency,[5],"inconclusive: 37.2 µM [cytotoxic, single point]"
same,Potency,[3],"inconclusive: 24.3 µM [cytotoxic, partial curve]"
Cn1c(=O)c(Oc2ccc(F)cc2F)cc2cnc(NC3CCOCC3)nc21,Potency,[7],"inconclusive: 0.0033 µM [cytotoxic, full curve, poor fit]"
same,Potency,[8],"inconclusive: 5.9 µM [cytotoxic, full curve]"
same,Potency,[3],inactive
CCC1=C(C)CN(C(=O)NCCc2ccc(S(=O)(=O)NC(=O)NC3CCC(C)CC3)cc2)C1=O (configuration not stated),Potency,[7],inactive
same,Potency,[8],inactive
C=C(C)[C@@H]1CC[C@]2(C)CC[C@]3(C)[C@H](CC[C@@H]4[C@@]5(C)CC[C@H](O)C(C)(C)[C@H]5CC[C@]43C)[C@@H]12,Potency,[7],inactive
O=C(O)c1c(Cl)c(Cl)c(Cl)c(Cl)c1-c1c2cc(I)c(=O)c(I)c-2oc2c(I)c(O)c(I)cc12,Potency,[7],"inconclusive: 10.4 µM [cytotoxic, partial curve, poor fit]"
same,Potency,[8],"inconclusive: 11.8 µM [cytotoxic, partial curve]"
same,Potency,[2],"inconclusive: 10.5 µM [cytotoxic, partial curve]"
same,Potency,[4],"inconclusive: 9.35 µM [cytotoxic, partial curve]"
same,Potency,[5],"inconclusive: 20.9 µM [cytotoxic, single point]"
same,Potency,[3],"inconclusive: 15.3 µM [cytotoxic, partial curve]"
O=C(O)CSCC(=O)NC1CCSC1=O (configuration not stated),Potency,[7],inactive
CC(C)C1CCC(C(=O)N[C@H](Cc2ccccc2)C(=O)O)CC1 (some centres not stated),Potency,[7],"inconclusive: 0.0829 µM [cytotoxic, full curve, poor fit]"
CN1CCC(=C2c3ccccc3CC(=O)c3sccc32)CC1,Potency,[9],inactive
same,Potency,[3],inactive

# From PubChem BioAssay (NCATS)
